# Where “and” joins values, the source holds several entries; their conditions need not be identical. Equal values may be shown once. Screen size: about 340,000 compounds; about 12,000 (3.5%) were called active. The shares of active, inactive and inconclusive entries below differ from those in the screen. The call rests on the fitted dose curve; in most records, active means well fitted inhibition curve with a large enough effect; inconclusive means small, poorly fitted or top-dose-only effect, or another doubt; inactive means no such curve, though single readings can be large or run the other way. Potencies of inconclusive entries are doubtful fits and often do not repeat.
# Test: qHTS Assay for Inhibitors of Hepatitis C Virus (HCV)
# Conditions: Huh7.5.1 HCVcc-Cre (HCVcc is cell-culture hepatitis C virus) infection, luciferase reporter, 44 h; activity change, negative = inhibition: at 41.8 µM (top of the series)
# Summary of the method: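 Whole-lifecycle infectious HCVcc-Cre system; cells 1,000/well, compound then virus (~0.5 moi) added 4 h after plating, 44 h culture. Luciferase read 15 sec following 15 min substrate incubation, room temp.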
# On the % scale 0 is the no-effect control and ±100 the full control effect; potency means the concentration at half of the fitted maximal effect; tags describe the fitted curve by direction and shape.
Structure (SMILES),Potency,"activity change, negative = inhibition"
CCOc1ccc(CSc2nc(C)cc(COC)c2C#N)cc1OCC,"inconclusive: 1.26 µM [inhibitor, full curve]",
O=C(COc1ccccc1)NCC(c1ccco1)N1CCN(c2ccc(F)cc2)CC1 (stereo unspecified),"inconclusive: 28.2 µM [inhibitor, single point]",
CC(=O)OCCNC(=O)c1cc2ccccc2oc1=O,,inactive: 11.6%
COc1cc(CN2CCCC(C(=O)c3ccc(C(C)(C)C)cc3)C2)cc(OC)c1O (stereo unspecified),"inconclusive: 11.2 µM [inhibitor, partial curve]",
CNC(=S)NNC(=O)c1sccc1C,,inactive: 20.2%
CC(=O)c1ccc(OCC(=O)c2cc(C)n(-c3ccc4c(c3)OCO4)c2C)cc1,active: 12.6 µM,
CCCCn1nc(C(=O)NCC(c2cccs2)N2CCOCC2)c2ccccc2c1=O (stereo unspecified),"inconclusive: 7.08 µM [inhibitor, partial curve]",
CCOc1ccc(NC(=O)N2CCC(C(=O)c3ccc(F)cc3)CC2)cc1,"inconclusive: 11.2 µM [inhibitor, partial curve, poor fit]",
CCc1ccccc1NC(=O)c1cccc(NC(=O)/C=C/c2ccco2)c1,"inconclusive: 5.62 µM [inhibitor, full curve]",
COc1cc(/C=C(\NC(=O)c2cc(OC)c(OC)c(OC)c2)C(=O)NC(C(=O)O)c2ccccc2)cc(OC)c1OC (stereo unspecified),,inactive: 10.5%
CN(C)S(=O)(=O)c1ccc(N2CCCC2)c(C(=O)N2CCN(S(=O)(=O)c3ccccc3F)CC2)c1,"inconclusive: 12.6 µM [inhibitor, partial curve, poor fit]",
Cc1ccc(Cl)c(OCC(=O)NCC(c2cccs2)N2CCOCC2)c1 (stereo unspecified),active: 12.6 µM,
COc1ccc(CCNC(=O)c2ccc3c(SCC(=O)O)c4c(nc3c2)CCCC4)cc1OC,"inconclusive: 31.6 µM [inhibitor, single point]",
CCC/C(=N\NC(=O)c1csc(C)c1C)c1cccs1,"inconclusive: 20 µM [inhibitor, partial curve, poor fit]",
Clc1cc(CSc2ccccc2)nc(-c2ccccc2)n1,,inactive: 17.8%
Cc1ccc(-c2nc3cc(N)ccc3o2)c(C)c1,"inconclusive: 35.5 µM [inhibitor, partial curve]",
COc1cc(-c2nnc(-c3cccs3)o2)cc(OC)c1OC,"inconclusive: 5.62 µM [inhibitor, single point]",
Cc1oc(-c2ccc(Cl)cc2)nc1CN1CCCC(C(=O)NCCCN2CCOCC2)C1 (stereo unspecified),active: 6.31 µM,
CC(C)Cn1c(C(C)C)nc([N+](=O)[O-])c1Sc1ccc(Cl)cn1,"inconclusive: 3.55 µM [inhibitor, partial curve]",
CC(=O)c1ccc(N2CCN(C(=O)c3ccc4c(=O)n(-c5ccccc5)c(=O)[nH]c4c3)CC2)cc1,"inactive and inconclusive: 11.2 µM [inhibitor, partial curve]",
COC(=O)COc1ccc(/C=C2\C(=O)NC(=S)N(c3ccc(C)cc3)C2=O)cc1OC,,inactive: 2.37%
COC(=O)c1cccc(Cn2nnc3ccccc3c2=O)c1,,inactive: 11.6%
COc1ccc(CCNC(=O)Cn2c(-c3nonc3N)nc3ccccc32)cc1OC,"inconclusive: 11.2 µM [inhibitor, partial curve]",
COc1cccc(OC)c1C(=O)Nc1cccc(NC(=O)c2cccs2)c1,,inactive: -22.7%

Structure (SMILES),Potency,"activity change, negative = inhibition"
CCC(=O)c1cccc2c1N=CC1=C(CC(C)(C)CC1=O)N2,"inconclusive: 11.2 µM [inhibitor, partial curve]",
CCCN(CCC)C(=O)c1cn(CC)c2ccc(S(=O)(=O)N3CCCCC3)cc2c1=O,,inactive: -3.19%
Cc1csc(NC(=O)C2CCN(S(=O)(=O)c3ccccc3F)CC2)n1,"inconclusive: 22.4 µM [inhibitor, single point]",
COc1ccccc1N1CCN(CC(O)COCCOc2ccc(Br)cc2)CC1 (stereo unspecified),"inconclusive: 11.2 µM [inhibitor, partial curve]",
CCOc1ccccc1NC(=O)CSc1nnc(CCC(=O)Nc2ccccc2F)n1C,"inconclusive: 2.51 µM [inhibitor, single point]",
CCOc1cc(N2CCOCC2)c(OCC)cc1NC(=O)c1cc(C)nc2ccccc12,,inactive: 1.73%
Cc1cc(CNC(=O)COC(=O)c2ccc(Cl)c(N)c2)cc(C)c1O,"inconclusive: 31.6 µM [inhibitor, single point]",
COc1ccc(Nc2ncnc3ccccc23)cc1,"inconclusive: 35.5 µM [inhibitor, single point]",
COc1cc(OC)c2c(c1)O/C(=C\c1ccccc1)C2=O,"inconclusive: 31.6 µM [inhibitor, single point]",
CN(C)S(=O)(=O)N(CC(=O)NCc1ccccc1)c1ccccc1,,inactive: 12.9%
Fc1ccc(C2=NNC(=NCc3ccccc3)SC2)cc1F,,inactive: -6.99%
CCOC(=O)c1[nH]c(C)c(C(=O)OCc2ccccc2F)c1C,active: 3.16 µM,
O=C(O)c1ccc(C(=O)Nc2ccc(F)cc2)cc1,,inactive: 8.99%
COc1ccc(C2c3c(ncn(CCN4CCOCC4)c3=N)Oc3ccc4ccccc4c32)cc1 (stereo unspecified),"inconclusive: 31.6 µM [inhibitor, single point]",
Cc1cc(O)c(C(=O)/C=C/c2ccccc2Br)c(=O)o1,,inactive: -16.2%
CCOC(=O)N1CCN(c2ccccc2O)CC1,,inactive: 11%
COc1ccc(N2CCN(C(=O)CC(NC(N)=O)c3cccc(Oc4ccccc4)c3)CC2)cc1 (stereo unspecified),"inconclusive: 31.6 µM [inhibitor, single point]",
CCOc1ccc(CN(C)C(=O)c2cc(S(=O)(=O)N3CCCC3)ccc2C)cc1,"inconclusive: 12.6 µM [inhibitor, single point]",
NS(=O)(=O)c1ccc(NC(=O)CSc2ncnc3ccccc23)cc1,"inconclusive: 31.6 µM [inhibitor, single point]",
CC(C)(C)c1nc(SCC(=O)NCc2ccco2)c2ccccc2n1,"inconclusive: 31.6 µM [inhibitor, single point]",
CSCC(C)N1CCC(CCC(=O)NC2CC2)CC1 (stereo unspecified),"inconclusive: 22.4 µM [inhibitor, single point]",
CN(C(=O)c1cccc(NC(=O)Cc2ccc(NC(=O)C3CCN(C(=O)C4CCCC4)CC3)cc2)c1)C1CCCC1,"inconclusive: 2.82 µM [inhibitor, single point]",
CCOc1ccc(Nc2cc(C)nc3ccc(C)cc23)cc1,"inconclusive: 22.4 µM [inhibitor, single point]",
COC(=O)c1cc(OC)c(OC)cc1NC(=S)N1CCN(c2ccccc2)CC1,"inconclusive: 12.6 µM [inhibitor, partial curve]",

Structure (SMILES),Potency,"activity change, negative = inhibition"
CCOc1ccccc1OCCC(=O)Nc1ccc2c(c1)OCO2,"inconclusive: 6.31 µM [inhibitor, full curve, poor fit]",
O=c1oc2ccccc2cc1NCc1ccccc1O,"inconclusive: 22.4 µM [inhibitor, single point]",
Cc1ccc(NC(=O)N2CCC(C(=O)NCc3ccccc3)CC2)cc1,"inconclusive: 31.6 µM [inhibitor, single point]",
COCCO[C@H]1CC[C@@]2(C)C(=CCC3C2CC[C@@]2(C)C3CC[C@]2(C)O)C1 (stereo partly specified),"inconclusive: 12.6 µM [inhibitor, partial curve]",
Cc1cccc(Nc2nc(N)nc(CCl)n2)c1C,,inactive: -74.8%
CC(NS(=O)(=O)c1c(N)n(C)c(=O)n(C)c1=O)c1ccccc1 (stereo unspecified),,inactive: 1.38%
C/C=C\C=C/C(=O)Nc1cccc(C2=NOC3(C2)C[C@@H](C(N)=O)N(C(=O)/C=C/C=C\C)C3)c1 (stereo partly specified),,inactive: 6.57%
COc1ccc(NC(=S)Nc2ccc(C)c(Cl)c2)cc1OC,,inactive: -24.3%
COc1ccc(CC(=O)N2CCC(Nc3nc4ccccc4n3Cc3ccc(F)cc3)CC2)cc1,"inconclusive: 14.1 µM [inhibitor, single point]",
Cc1ncc(CN2CCCC(C(=O)Nc3ccc(-c4cccc(F)c4)cc3)C2)cn1 (stereo unspecified),"inconclusive: 7.08 µM [inhibitor, partial curve]",
O=C(O)Cn1c(=O)c2c3c(sc2n(Cc2ccc(F)cc2)c1=O)CCCC3,"inconclusive: 5.01 µM [inhibitor, single point]",
COc1ccc(CCn2c(N)c(S(=O)(=O)c3cccs3)c3nc4ccccc4nc32)cc1OC,"inconclusive: 2.24 µM [inhibitor, full curve]",
Cc1cc(Sc2ccc([N+](=O)[O-])cn2)ccc1Br,,inactive: 2.01%
Cc1cc2nc(-c3cccc(NC(=O)c4ccc(Br)o4)c3)oc2cc1C,"inconclusive: 11.2 µM [inhibitor, single point]",
C=CCOc1ccc(/C=C2\SC(N)=NC2=O)cc1OC,,inactive: -11.9%
CC(=O)c1sc(NC(=O)COc2ccc(C(C)C)c(C)c2)nc1C,active: 2.51 µM,
N#CC(C(=O)c1ccc(S(=O)(=O)N2CCCCCC2)cc1)c1nc2ccccc2[nH]1 (stereo unspecified),"inconclusive: 3.16 µM [inhibitor, full curve]",
COc1ccc(CN(C)C(=O)CNC(=O)c2sc3ccccc3c2Cl)c(OC)c1OC,"inconclusive: 14.1 µM [inhibitor, single point]",
COc1ccc(N(CC(=O)Nc2cc(C)ccc2C)S(=O)(=O)c2c(C)nn(C)c2C)cc1,"inconclusive: 31.6 µM [inhibitor, single point]",
CCn1c(C)cc(/C=C2/NC(=O)N(CC(=O)Nc3cccc(C)c3)C2=O)c1C,,inactive: 13.2%
CCOc1ccc(CN2CCSCC2)cc1,,inactive: 10.6%
COCC(=O)n1nc(-c2ccccc2)nc1NCc1ccccc1,,inactive: 11%
COc1cccc(Nc2nc3cc(OC)ccc3cc2C#N)c1,"inconclusive: 7.08 µM [inhibitor, partial curve]",

# From PubChem BioAssay AID651820 (National Center for Advancing Translational Sciences (NCATS), 2012)
